The list shows a part of the results.
Key:
Test in all cases: glycan array binding signal (z-score within array); higher = stronger binding
Conditions in all cases: glycan notation: IUPAC condensed, linker removed
Fuc(a1-3)GlcNAc = biological target: Fuc(a1-3)GlcNAc
Method in brief: (§1)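 The Consortium for Functional Glycomics database supplied 3228 glycan arrays, of which those lacking an available protein sequence were dropped. The binding signal, a within-array Z-score, was averaged across arrays of the same protein sequence and across linkers. Negative scores can be read as non-binding.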

[1] = biological target: Fuc(a1-3)[Gal(b1-4)]Glc6S
Method in brief: as §1

[2] = biological target: Fuc(a1-3)[Gal(b1-4)]GlcNAc
Method in brief: as §1

[3] = biological target: Fuc(a1-3)[Gal(b1-4)]GlcNAc(b1-2)Man
Method in brief: as §1

[4] = biological target: Fuc(a1-3)[Gal(b1-4)]GlcNAc(b1-2)Man(a1-3)[Fuc(a1-3)[Gal(b1-4)]GlcNAc(b1-2)Man(a1-6)]Man(b1-4)GlcNAc(b1-4)GlcNAc
Method in brief: as §1

[5] = biological target: Fuc(a1-3)[Gal(b1-4)]GlcNAc(b1-2)Man(a1-3)[Fuc(a1-3)[Gal(b1-4)]GlcNAc(b1-2)Man(a1-6)]Man(b1-4)GlcNAc(b1-4)[Fuc(a1-6)]GlcNAc
Method in brief: as §1

[6] = biological target: Fuc(a1-3)[Gal(b1-4)]GlcNAc(b1-3)Gal(b1-3)[Fuc(a1-4)]GlcNAc
Method in brief: as §1

[7] = biological target: Fuc(a1-3)[Gal(b1-4)]GlcNAc(b1-3)Gal(b1-4)[Fuc(a1-3)]GlcNAc
Method in brief: as §1

[8] = biological target: Fuc(a1-3)[Gal(b1-4)]GlcNAc(b1-3)Gal(b1-4)[Fuc(a1-3)]GlcNAc(b1-3)Gal(b1-4)[Fuc(a1-3)]GlcNAc
Method in brief: as §1

[9] = biological target: Fuc(a1-3)[Gal(b1-4)]GlcNAc(b1-3)GalNAc
Method in brief: as §1

[10] = biological target: Fuc(a1-3)[Gal(b1-4)]GlcNAc(b1-6)GalNAc
Method in brief: as §1

[11] = biological target: Fuc(a1-3)[Gal(b1-4)]GlcNAc(b1-6)[Gal(b1-3)GlcNAc(b1-3)]Gal(b1-4)Glc
Method in brief: as §1

[12] = biological target: Fuc(a1-3)[Gal(b1-4)]GlcNAc6S
Method in brief: as §1

[13] = biological target: Fuc(a1-3)[Gal3S(b1-4)]Glc
Method in brief: as §1

[14] = biological target: Fuc(a1-3)[Gal3S(b1-4)]GlcNAc
Method in brief: as §1

[15] = biological target: Fuc(a1-3)[Gal3S(b1-4)]GlcNAc6S
Method in brief: as §1

[16] = biological target: Fuc(a1-3)[GalNAc(b1-4)]GlcNAc
Method in brief: as §1

[17] = biological target: Fuc(a1-3)[GalNAc(b1-4)]GlcNAc6S
Method in brief: as §1

Fuc(a1-4)GlcNAc = biological target: Fuc(a1-4)GlcNAc
Method in brief: as §1

Fuc(b1-3)GlcNAc = biological target: Fuc(b1-3)GlcNAc
Method in brief: as §1

Gal(a1-2)Gal = biological target: Gal(a1-2)Gal
Method in brief: as §1

Gal(a1-3)Gal = biological target: Gal(a1-3)Gal
Method in brief: as §1

Gal(a1-3)Gal(b1-3)GlcNAc = biological target: Gal(a1-3)Gal(b1-3)GlcNAc
Method in brief: as §1

[18] = biological target: Gal(a1-3)Gal(b1-3)GlcNAc(b1-2)Man
Method in brief: as §1

[19] = biological target: Gal(a1-3)Gal(b1-3)GlcNAc(b1-2)Man(a1-3)[Gal(a1-3)Gal(b1-3)GlcNAc(b1-2)Man(a1-6)]Man(b1-4)GlcNAc(b1-4)GlcNAc
Method in brief: as §1

[20] = biological target: Gal(a1-3)Gal(b1-3)GlcNAc(b1-3)GalNAc
Method in brief: as §1

[21] = biological target: Gal(a1-3)Gal(b1-3)GlcNAc(b1-6)GalNAc
Method in brief: as §1

[22] = biological target: Gal(a1-3)Gal(b1-3)[Fuc(a1-4)]GlcNAc(b1-2)Man(a1-3)[Gal(a1-3)Gal(b1-3)[Fuc(a1-4)]GlcNAc(b1-2)Man(a1-6)]Man(b1-4)GlcNAc(b1-4)GlcNAc
Method in brief: as §1

Gal(a1-3)Gal(b1-4)Glc = biological target: Gal(a1-3)Gal(b1-4)Glc
Method in brief: as §1

Gal(a1-3)Gal(b1-4)GlcNAc = biological target: Gal(a1-3)Gal(b1-4)GlcNAc
Method in brief: as §1

[23] = biological target: Gal(a1-3)Gal(b1-4)GlcNAc(b1-2)Man
Method in brief: as §1

[24] = biological target: Gal(a1-3)Gal(b1-4)GlcNAc(b1-2)Man(a1-3)[Gal(a1-3)Gal(b1-4)GlcNAc(b1-2)Man(a1-6)]Man(b1-4)GlcNAc(b1-4)GlcNAc
Method in brief: as §1

[25] = biological target: Gal(a1-3)Gal(b1-4)GlcNAc(b1-3)GalNAc
Method in brief: as §1

[26] = biological target: Gal(a1-3)Gal(b1-4)GlcNAc(b1-6)GalNAc
Method in brief: as §1

[27] = biological target: Gal(a1-3)Gal(b1-4)[Fuc(a1-3)]GlcNAc
Method in brief: as §1

[28] = biological target: Gal(a1-3)Gal(b1-4)[Fuc(a1-3)]GlcNAc(b1-2)Man(a1-3)[Gal(a1-3)Gal(b1-4)[Fuc(a1-3)]GlcNAc(b1-2)Man(a1-6)]Man(b1-4)GlcNAc(b1-4)GlcNAc
Method in brief: as §1

Gal(a1-3)GalNAc = biological target: Gal(a1-3)GalNAc
Method in brief: as §1

[29] = biological target: Gal(a1-3)[Gal(a1-4)]Gal(b1-4)GlcNAc
Method in brief: as §1

[30] = biological target: Gal(a1-4)Gal(b1-3)GlcNAc(b1-2)Man(a1-3)[Gal(a1-4)Gal(b1-3)GlcNAc(b1-2)Man(a1-6)]Man(b1-4)GlcNAc(b1-4)GlcNAc
Method in brief: as §1

Gal(a1-4)Gal(b1-4)Glc = biological target: Gal(a1-4)Gal(b1-4)Glc
Method in brief: as §1

Gal(a1-4)Gal(b1-4)GlcNAc = biological target: Gal(a1-4)Gal(b1-4)GlcNAc
Method in brief: as §1

[31] = biological target: Gal(a1-4)Gal(b1-4)GlcNAc(b1-2)Man(a1-3)[Gal(a1-4)Gal(b1-4)GlcNAc(b1-2)Man(a1-6)]Man(b1-4)GlcNAc(b1-4)GlcNAc
Method in brief: as §1

[32] = biological target: Gal(a1-4)Gal(b1-4)GlcNAc(b1-3)Gal(b1-4)Glc
Method in brief: as §1

Gal(a1-4)GlcNAc = biological target: Gal(a1-4)GlcNAc
Method in brief: as §1

Gal(a1-6)Glc = biological target: Gal(a1-6)Glc
Method in brief: as §1

B1: Als3-2 (Candida albicans) (protein)
chain: KTITGVFNSFNSLTWSNAATYNYKGPGTPTWNAVLGWSLDGTSASPGDTFTLNMPCVFKFTTSQTSVDLTAHGVKYATCQFQAGEEFMTFSTLTCTVSNTLTPSIKALGTVTLPLAFNVGGTGSSVDLEDSKCFTAGTNTVTFNDGGKKISINVDFERSNVDPKGYLTD
- glycan array binding signal (z-score) (Fuc(a1-3)GlcNAc): -0.39
- glycan array binding signal (z-score) [1]: 0.576
- glycan array binding signal (z-score) [2]: -0.269
- glycan array binding signal (z-score) [3]: -0.549
- glycan array binding signal (z-score) [4]: 0.525
- glycan array binding signal (z-score) [5]: -0.462
- glycan array binding signal (z-score) [6]: 3.23
- glycan array binding signal (z-score) [7]: -0.091
- glycan array binding signal (z-score) [8]: -0.374
- glycan array binding signal (z-score) [9]: -0.173
- glycan array binding signal (z-score) [10]: -0.391
- glycan array binding signal (z-score) [11]: -0.313
- glycan array binding signal (z-score) [12]: 2.13
- glycan array binding signal (z-score) [13]: -0.64
- glycan array binding signal (z-score) [14]: 0.84
- glycan array binding signal (z-score) [15]: 0.07
- glycan array binding signal (z-score) [16]: 0.467
- glycan array binding signal (z-score) [17]: 0.076
- glycan array binding signal (z-score) (Fuc(a1-4)GlcNAc): -0.199
- glycan array binding signal (z-score) (Fuc(b1-3)GlcNAc): -0.35
- glycan array binding signal (z-score) (Gal(a1-2)Gal): -0.51
- glycan array binding signal (z-score) (Gal(a1-3)Gal): -0.231
- glycan array binding signal (z-score) (Gal(a1-3)Gal(b1-3)GlcNAc): -0.231
- glycan array binding signal (z-score) [18]: -0.393
- glycan array binding signal (z-score) [19]: -0.235
- glycan array binding signal (z-score) [20]: -0.439
- glycan array binding signal (z-score) [21]: -0.379
- glycan array binding signal (z-score) [22]: -0.074
- glycan array binding signal (z-score) (Gal(a1-3)Gal(b1-4)Glc): -0.649
- glycan array binding signal (z-score) (Gal(a1-3)Gal(b1-4)GlcNAc): -0.638
- glycan array binding signal (z-score) [23]: -0.476
- glycan array binding signal (z-score) [24]: -0.31
- glycan array binding signal (z-score) [25]: 0.715
- glycan array binding signal (z-score) [26]: -0.664
- glycan array binding signal (z-score) [27]: -0.606
- glycan array binding signal (z-score) [28]: -0.582
- glycan array binding signal (z-score) (Gal(a1-3)GalNAc): -0.308
- glycan array binding signal (z-score) [29]: -0.308
- glycan array binding signal (z-score) [30]: 1.33
- glycan array binding signal (z-score) (Gal(a1-4)Gal(b1-4)Glc): 0.276
- glycan array binding signal (z-score) (Gal(a1-4)Gal(b1-4)GlcNAc): 0.184
- glycan array binding signal (z-score) [31]: -0.609
- glycan array binding signal (z-score) [32]: -0.608
- glycan array binding signal (z-score) (Gal(a1-4)GlcNAc): -0.593
- glycan array binding signal (z-score) (Gal(a1-6)Glc): -0.625

Source: the supplement of paper PMC8728848
